Assay results published in the supplement of paper PMC7125110.
± gives the standard error. This sample is rich in variants without activity.

B1: glmS ribozyme (parent)
chain: AUAAAAGCGCCAGAACUACAGAAAUGUAGUUGACGAGGAGGAGGUUUAUCGAAUUUUCGGCGGAUGCCUCCAAA

Variants of: B1
Experiment: self-cleavage kobs at 2500 uM GlcN6P; higher = faster cleavage; RNA array
Details: with glucosamine-6-phosphate
How it was run: (§1)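 Glucosamine-6-phosphate (40 μM to 10 mM) in HEPES/KCl/Mg(OAc)2 buffer was flowed over sequenced MiSeq chips, and tiles were imaged over ~14 h. Barcoded ribozyme variants there had been transcribed in situ by E. coli RNA polymerase and were tracked through a hybridised Cy3 probe at 37 °C. One- or two-exponential decay fits to per-tile medians, normalised to baseline and to non-cleaving reference variants, gave kobs. kcat and KM came from weighted Michaelis–Menten fits across concentrations.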

| Variant | self-cleavage kobs at 2500 uM GlcN6P [s⁻¹] |
| --- | --- |
| A14C G35A A39G U69C | < 1e-05 |
| A15G C34U G35C | < 1e-05 |
| G29C A48G G60U | < 1e-05 |
| C16U G43U | 2.81e-05 ± 1.3e-05 |
| G13C G32U G43A U55C | < 1e-05 |
| A15G G37U C61A C68A C70G | 4.28e-05 ± 2e-05 |
| C16A G51U A52C G60U | < 1e-05 |
| G13A G40A | 5.48e-05 ± 1.2e-05 |
| G29U G32U A36U C61A C71G | < 1e-05 |
| A14G U30G A42C C68G | < 1e-05 |
| G29U G44C A64U | < 1e-05 |
| C11U G35A G37U A64C | < 1e-05 |
| A14C G41U C68A | < 1e-05 |
| C11G G35A U55C | < 1e-05 |
| C11U U45A A53U U57G | < 1e-05 |
| G13U A14G G38A | < 1e-05 |
| C16U G32A | 0.00201 ± 0.00037 |
| G13C A36C G41U | < 1e-05 |
| A14C C34G G62U | < 1e-05 |
| C16U U45A A48U G62A C68A | < 1e-05 |
| A12U A36C G62U | < 1e-05 |
| A15U C16A U30C A48C | < 1e-05 |
| A15G G29U C50G | 5.06e-05 ± 2.4e-05 |

| Variant | self-cleavage kobs at 2500 uM GlcN6P [s⁻¹] |
| --- | --- |
| C11U U49A A53U U57C G59A | < 1e-05 |
| G29U A42U C68A C71U | < 1e-05 |
| A15C A39U A52C C70A | < 1e-05 |
| C16A G37A C58U | < 1e-05 |
| A15C G29A U46C C67G | < 1e-05 |
| A14U C67A C71U | 0.000265 ± 5.2e-05 |
| A15U G29C C50U | < 1e-05 |
| C11U U45A A64C | < 1e-05 |
| G13U G60C G63U C68G | < 1e-05 |
| C16A U54C U56G G60U | < 1e-05 |
| G26U C34A C50U C68G | < 1e-05 |
| G13C C16U C71U | 7.64e-05 ± 1.7e-05 |
| C16U U57A G59C | < 1e-05 |
| G29C A36C G41U | < 1e-05 |
| C16G G32C G40U U69C | < 1e-05 |
| A12G G44U G51C C70A | < 1e-05 |
| G29C C58G G59C C61A G63A | < 1e-05 |
| G13A U31G | 6.35e-05 ± 1.5e-05 |
| G13U A33C A64U C71G | < 1e-05 |
| G13C U47A U57G U65C | < 1e-05 |
| C11U C34A G44A | < 1e-05 |
| A23C G29C A36C A39G A48C G59A | < 1e-05 |
| C11U G40C G44A G51A C61G C71A | < 1e-05 |

| Variant | self-cleavage kobs at 2500 uM GlcN6P [s⁻¹] |
| --- | --- |
| A12G C34U U45G | < 1e-05 |
| A15C G51A U55C C58U | < 1e-05 |
| A14C G32U U47C C67G | < 1e-05 |
| A14C U46C C70U | 0.000279 ± 5.2e-05 |
| A15U G29A A33G | < 1e-05 |
| C16G G43A U57A G66U U69A | < 1e-05 |
| C16U G60U G63U | < 1e-05 |
| C16A A36G A48G A53C | < 1e-05 |
| A15U G38U G51A | < 1e-05 |
| A14C C16A G63A | < 1e-05 |
| C16U U30G G32U A48G | < 1e-05 |
| G29A G44C U54C | < 1e-05 |
| A12U C34U G38A C50G | 0.000122 ± 3e-05 |
| G29U G38C U56G | < 1e-05 |
| A15C G35U C67U C68A | < 1e-05 |
| A14G U31C G43C | < 1e-05 |
| A12U G32U G62U | < 1e-05 |
| G29U A42U G51A | < 1e-05 |
| G13U G29U C70A | 4.33e-05 ± 1.9e-05 |
| A12U G41C C61U | < 1e-05 |
| G29C U31A | 0.000502 ± 0.0001 |
| A14C G38A G43A U55G | < 1e-05 |
| U30A A53U G63C | < 1e-05 |

| Variant | self-cleavage kobs at 2500 uM GlcN6P [s⁻¹] |
| --- | --- |
| A14G A33G U46C A52C | < 1e-05 |
| G13U U31C C70U | 0.000186 ± 4.5e-05 |
| A12G U31A U45A | 0.000216 ± 6.4e-05 |
| C16U G38A G43U | < 1e-05 |
| C11G A15U A42U U46C | < 1e-05 |
| A14C A53C C67G | < 1e-05 |
| C11G A42U A52U C58G C70G | < 1e-05 |
| C11U A39C G43U G62A | < 1e-05 |
| G13C A36U A48C | < 1e-05 |
| G29U G38A A52U | < 1e-05 |
| A14G A42G G60U C71G | < 1e-05 |
| G29A U45G A52C | < 1e-05 |
| A14U G51U G60U | < 1e-05 |
| G13A U56C | 8.37e-05 ± 2e-05 |
| A12C A48C G66A C68G | < 1e-05 |
| C16A G43C U45C G62A | < 1e-05 |
| C16A G29A C70A | 6.39e-05 ± 2.4e-05 |
| U30A G32C | 6.18e-05 ± 2.8e-05 |
| G13U U47G C67A | 7.8e-05 ± 1.6e-05 |
| A15G C16A G44C | < 1e-05 |
| G13A A14C C68G C70A | < 1e-05 |
| G29U G32C U56A | 7.28e-05 ± 1.4e-05 |
| U30C C34A A48U | < 1e-05 |

| Variant | self-cleavage kobs at 2500 uM GlcN6P [s⁻¹] |
| --- | --- |
| A15G G44C | 0.00014 ± 4.2e-05 |
| C11G C16A G38A G60A | < 1e-05 |
| G13U G62A G63U U65G | < 1e-05 |
| G13U G38U U54G G62A | < 1e-05 |
| C16A U49C G59U U69A | < 1e-05 |
| G29A G44C C58A G62U | < 1e-05 |
| A15U U31G G59A | < 1e-05 |
| A14C G37U G38C C71A | < 1e-05 |
| G13A G37C U55A C68U | < 1e-05 |
| G13C A33C G37U | < 1e-05 |
| A14C A33C C58A | < 1e-05 |
| A14U G40C G66C | 9.83e-05 ± 2.2e-05 |
| G13U C58U A64G U65G | < 1e-05 |
| G13U A36C A42G C58U | < 1e-05 |
| A15C U45C C50G C68U | < 1e-05 |
| A15C C34A U57G A64U | < 1e-05 |
| A14G A15G G29C U31A C34G G43U G62A | < 1e-05 |
| G13C G32C G35U U55C U56G C71G | < 1e-05 |
| C11G G32A U56G | < 1e-05 |
| A12U G13C U56G C67U | < 1e-05 |
| A15U A33C G38C U46G U57G | < 1e-05 |
| A15G G59U G63U | < 1e-05 |
| A12G A14C U30C C70G | < 1e-05 |

| Variant | self-cleavage kobs at 2500 uM GlcN6P [s⁻¹] |
| --- | --- |
| G13C G35C U55G C58U | < 1e-05 |
| A15U G41A U55A C61G | < 1e-05 |
| A14U G66C | 4.36e-05 ± 8e-06 |
| G13U C16A G44C G51U U57G | < 1e-05 |
| C11U U31G G38C G44U A52C G62A | < 1e-05 |
| A15U A33G G40U G66C C67A | < 1e-05 |
| C11U G13U | 4.88e-05 ± 9.5e-06 |
| A15C A42G C70G | 7.41e-05 ± 1.9e-05 |
| A12G A33U A39G U65G | < 1e-05 |
| A15U G29U A33U G44C A53G U55C | < 1e-05 |
| C19U G41C U55C C70A | 0.000203 ± 9.2e-05 |
| A12U A15C G41C C61U G66A | < 1e-05 |
| A14C G35U G66C | < 1e-05 |
| A12U A33G G38U G44U G59A | < 1e-05 |
| C16G C50A C70A | 8.7e-05 ± 2.4e-05 |
| C16U C50G U55C | 7.17e-05 ± 2.1e-05 |
| G13A A39C A42G C70U | < 1e-05 |
| G29C A39C C58G | < 1e-05 |
| C16G A42U G44A U54A U65C C68U | < 1e-05 |
| A14G G29A C70G | 0.000126 ± 4e-05 |
| A14U G29A A64U | < 1e-05 |
| A14C U30C A33U G63A | < 1e-05 |
| C11U G60A G62U C67G | < 1e-05 |

| Variant | self-cleavage kobs at 2500 uM GlcN6P [s⁻¹] |
| --- | --- |
| A15G U49C C58U G60C | < 1e-05 |
| A12U U31G C58G | 7.42e-05 ± 2.7e-05 |
| C11U G13C U46G A64U | < 1e-05 |
| A15G G41U G51U C70G | < 1e-05 |
| G13U U46A U49A | < 1e-05 |
| A15G A39C U45A U56C | 0.000239 ± 5.6e-05 |
| G13A A39U A42C A64U | < 1e-05 |
| C11G G51C A64C | < 1e-05 |
| G13U C58U G59C | < 1e-05 |
| A15C G40C A52U | < 1e-05 |
| A12C A15U G43C G51A | < 1e-05 |
| G29A G44U A53U | < 1e-05 |
| C11G U30G A48C U55A | < 1e-05 |
| A14U G35U A36U | < 1e-05 |
| G29U A64G C67G | 6.02e-05 ± 1.3e-05 |
| G29U G51U G60U | < 1e-05 |
| C16G U45C G62U | < 1e-05 |
| G13A G40U G63A C67G | < 1e-05 |
| G13C A36G A64U C70G | < 1e-05 |
| G29A G35A G60C C67U | < 1e-05 |

Variants of: B1
Experiment: self-cleavage kobs at 10000 uM GlcN6P; higher = faster cleavage; RNA array
Details: with glucosamine-6-phosphate
How it was run: as §1

| Variant | self-cleavage kobs at 10000 uM GlcN6P [s⁻¹] |
| --- | --- |
| C16U G43U | 3.73e-05 ± 1e-05 |
| G13A G40A | 0.00011 ± 1.8e-05 |
| A15C G29A U46C C67G | < 1e-05 |
| G13C C16U C71U | 0.000169 ± 5.1e-05 |
| G13A U31G | 0.000153 ± 2.2e-05 |
| A15C G51A U55C C58U | < 1e-05 |
| A14C U46C C70U | 0.000482 ± 9.4e-05 |
| G29C U31A | 0.000731 ± 0.00017 |
| G13U U31C C70U | 0.000187 ± 3.2e-05 |
| G13A U56C | 0.00021 ± 3.7e-05 |
| U30A G32C | 0.000203 ± 5.8e-05 |
| A15G G44C | 0.000166 ± 3.2e-05 |
| C16A U49C G59U U69A | < 1e-05 |
| A14U G40C G66C | 0.00012 ± 2.4e-05 |
| A14U G66C | 9.18e-05 ± 1e-05 |
| C11U G13U | 5.47e-05 ± 8.2e-06 |
| A15C A42G C70G | 4.12e-05 ± 1.7e-05 |
| A14U G29A A64U | < 1e-05 |
| C11U G13C U46G A64U | < 1e-05 |
